The record followed here is article PMC12136788.

T1: UNK ZnF1-6 (called full-length) (human, UniProt Q9C0B0 30-357)
T1 sequence: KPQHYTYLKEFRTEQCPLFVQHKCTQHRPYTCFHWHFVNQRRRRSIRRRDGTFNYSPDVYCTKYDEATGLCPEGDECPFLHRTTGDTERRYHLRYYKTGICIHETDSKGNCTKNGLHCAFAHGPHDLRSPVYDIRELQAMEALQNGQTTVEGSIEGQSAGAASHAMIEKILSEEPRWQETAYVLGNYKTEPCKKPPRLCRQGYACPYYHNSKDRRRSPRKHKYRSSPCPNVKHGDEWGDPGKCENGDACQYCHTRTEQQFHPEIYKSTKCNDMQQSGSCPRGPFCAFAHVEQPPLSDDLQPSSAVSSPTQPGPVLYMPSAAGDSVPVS

B1: chr4:173248057:173248158:+|CDS|ENSG00000109586|unk|FALSE|bound_elsewhere (ssRNA)
RNA: GGGAGUUCUACAGUCCGACGAUCUUCAAACCUGUGGUACCAUGGCCUCAUGUUGAAGGAGUAGAAGUGGACUUAGAGUCUAUUAGAAGAAUAAACAAGGCCAAAAAUGAACAAGAGCACCAUGCUGGAGGAGAUUCCCAGAAACAACAGAGGAUUGAGCAUCA
B2: chr12:6965580:6965681:-|3pUTR|ENSG00000215021|unk|FALSE|unique (ssRNA)
RNA: GGGAGUUCUACAGUCCGACGAUCGUCAUUAUCUAUCUUUUUUUUCCUACAGUGACAGCCUCAUCAAGGGUAAGAAAUGAGCCUAGUCACCAAGAACUCCACCCCCAGAGGAAGUGGAUCUGCUUCUCCAGUUUUUGAGGAGCCCAACAGAGGAUUGAGCAUCA
B3: chr10:75397829:75398748:-|three_prime_utr|ENSG00000165655|control|control|control (ssRNA)
RNA: GGGAGUUCUACAGUCCGACGAUCCACUUUCACCUCCCCACCCAAACUUUAUAAAAGUUGAAAAAAUAUCAUUUGACUUUUUAUAGAAAAAAAAAGGAAAAAAUAAUUGAGAAAGUGUUCAUCUGAGGACUGCAUCGGUGGACACAACAGAGGAUUGAGCAUCA
B4: chr16:57758216:57758909:-|three_prime_utr|ENSG00000140859|control|control|control (ssRNA)
RNA: GGGAGUUCUACAGUCCGACGAUCGGGCCUGAAGCUGGGCCCUCACUGGCCUGUCCCUGCUGCAGCGCCAGGACCCCCGGAGGUAGAGGCGAGAGUGGAGGCUCUUCUUCUGCCCCGUCUCCCCUCAAAGAUGAGAAACAUGUUCAACAGAGGAUUGAGCAUCA
B5: chr2:227551976:227552087:+|CDS|ENSG00000173744|unk|FALSE|bound_elsewhere (ssRNA)
RNA: GGGAGUUCUACAGUCCGACGAUCUCCAUGAGCAUGCCCACAGGAUUCGGCACUCCUGCUCCCUACAGUCUUCCCACCAGCUUUAGUGGCAGCUUUCAGCAGCCUGCCUUUCCAGCCCAAGCAGCUUUCCCUCAACAGACAGCUCAACAGAGGAUUGAGCAUCA
B6: chr5:123575802:123575904:+|CDS|ENSG00000151292|unk|FALSE|unique (ssRNA)
RNA: GGGAGUUCUACAGUCCGACGAUCACCUGAGAACUUCUUAAUAGGACGACCAGGAAACAAAACCCAGCAAGUUAUUCACAUUAUAGAUUUUGGUUUGGCAAAGGAAUAUAUUGAUCCGGAGACAAAGAAACACAUACCAUACAGCAACAGAGGAUUGAGCAUCA
B7: chr5:173316791:173316892:-|3pUTR|ENSG00000113739|msi1|total|mutant (ssRNA)
RNA: GGGAGUUCUACAGUCCGACGAUCGGAAACCUUAUACCCAGAGGAAAAUACACACCUGGGGAGUACAUUUGACAAAUUUCCCUCCGGAUUUCGUUAUCUCACCUUGACCCUCAGCCAAGAUUGGUAAAGCUGCGUCCUGGCGAUCAACAGAGGAUUGAGCAUCA
B8: chr2:218264180:218264222:-|3pUTR|ENSG00000127837|msi1_unk|FALSE|overlapping (ssRNA)
RNA: GGGAGUUCUACAGUCCGACGAUCUUGAGGUUCCCGUUCUUUCCCUUCCCAAGUCUCUGGGGGUGGAAAGGAGGAAGAGAUACUAGUUAAAGAUUUUAAAAAUGUAAAUAAAAUAUACUUCCCAGAGACAGAGUCUGUGUGGAUCAACAGAGGAUUGAGCAUCA
B9: chr4:108667468:108667493:+|3pUTR|ENSG00000198856|msi1_unk|FALSE|overlapping (ssRNA)
RNA: GGGAGUUCUACAGUCCGACGAUCGAAUUUUUUUUCCUGCUGGCCUAUUGCUAUACCAAUGAUGUUGAGUGGCAUUUUCUUUUUAGUUUUUCAUUAAAAUAUAUUCCAUAUCUACAACUAUAAUAUCAAAUAAAGUGAUUAUUUCAACAGAGGAUUGAGCAUCA
B10: chr9:135932998:135933099:-|3pUTR|ENSG00000130560|unk|total|mutant (ssRNA)
RNA: GGGAGUUCUACAGUCCGACGAUCGCUGCUUGAAUUGCCGUGCCGACAUUUGCUUGGAGAGUCCACUUGUUAUUUGACGGAGGCCGGUUUCAACCCAGAGUUAAUGUCAAGCAUGCUAAUUUAACCCGUCACUCACAGAUGACUCAACAGAGGAUUGAGCAUCA
B11: chr17:80395157:80395266:+|3pUTR|ENSG00000173821|unk|FALSE|bound_elsewhere (ssRNA)
RNA: GGGAGUUCUACAGUCCGACGAUCCUUCAAAGCCUUAACUGUCAAAUCUUGCAUUAUCUUGUUUGUACAGAAAUAUACUGGCCUAGCAGAGGCAAAAAAAAAAAAAAUGAAUUUUAUUUUACUUGUCACACCUGUCUUAAUAAACAACAGAGGAUUGAGCAUCA
B12: chr4:150265445:150265561:-|3pUTR|ENSG00000198589|unk|FALSE|bound_elsewhere (ssRNA)
RNA: GGGAGUUCUACAGUCCGACGAUCGGAUUAGCAAAGCAGAAAACUGGCUGCUGGGUUCUGUAGUUUUAAAAAAUCUAUAUUUUUAGUCAUAAUGAGAAGUCUAUUUUCACCAAUUAUGGAAACAUACAGUGGAGCAAGUAAACCCAACAGAGGAUUGAGCAUCA
B13: ENSG00000198589:be:win_4251|CDS|ENSG00000198589|bound_else_gene|NA|bound_elsewhere_windowed (ssRNA)
RNA: GGGAGUUCUACAGUCCGACGAUCUAUAUUUGCAAGUUCUCUUGGCUUUACUGAAAUUGAAGCUGAAAAAAGUAUGUCAUCUGGAGGAAUUUUGCGGCAGUGUCUCCGACUAGUUUGUGCAGUCGCAGUAAGGAAUUGCUUGGACAACAGAGGAUUGAGCAUCA
B14: chr7:158693335:158693439:-|CDS|ENSG00000146918|unk|FALSE|unique (ssRNA)
RNA: GGGAGUUCUACAGUCCGACGAUCAAGGAAACAGAAAGAAGAAUUAUGGCAAAGGCUGAAGAAUUUAUUGACAGAUGUGUUGUUAGAAAGCCCAGUGGAUGGGUGGCAGGUAGUGGAAGCCCAGGGUGAAGACAAUAUGGAAACCAACAGAGGAUUGAGCAUCA

This is one part of the list.

For the assay, the target named is T1, UNK ZnF1-6 (called full-length). Description: nsRBNS (natural sequence RNA bind-n-seq); RBNS binding buffer (assumed for nsRBNS): 25 mM Tris pH 7.5, 150 mM KCl, 3 mM MgCl2, 0.01% Triton X-100, 500 ug/ml BSA, 20 U/ml SUPERase-In, 4 C; UNK is unkempt and MSI1 is Musashi-1; names of the RNAs are library labels; protein concentration not given here; high values mean tight binding.
With B1, the binding signal was determined as 1.08 enrichment R. The molecule B2 yielded a binding signal of 2.04 enrichment R.

B3: the binding signal was 0.652 enrichment R.

As to B4, the binding signal came to 0.756 enrichment R. In the case of B5 it was 1.07 enrichment R; in that of B6, 1.16 enrichment R. In the case of B7 it was 0.493 enrichment R; in that of B8, 6.35 enrichment R. In the case of B9 it was 5.27 enrichment R; in that of B10, 0.423 enrichment R.

B11: the binding signal is 0.564 enrichment R. With B12 the figure was 2.4 enrichment R. With B13 the figure was 0.48 enrichment R. B14 registered a binding signal of 1.06 enrichment R.
